The full ranking holds about 33,000 sequences; the median of “E-score (-0.5 to 0.5)” is about -0.035, and the highest 2% start at about 0.35. Some of the results follow.
Biological target: T1, Pdr3 (UniProt P33200)
T1 sequence: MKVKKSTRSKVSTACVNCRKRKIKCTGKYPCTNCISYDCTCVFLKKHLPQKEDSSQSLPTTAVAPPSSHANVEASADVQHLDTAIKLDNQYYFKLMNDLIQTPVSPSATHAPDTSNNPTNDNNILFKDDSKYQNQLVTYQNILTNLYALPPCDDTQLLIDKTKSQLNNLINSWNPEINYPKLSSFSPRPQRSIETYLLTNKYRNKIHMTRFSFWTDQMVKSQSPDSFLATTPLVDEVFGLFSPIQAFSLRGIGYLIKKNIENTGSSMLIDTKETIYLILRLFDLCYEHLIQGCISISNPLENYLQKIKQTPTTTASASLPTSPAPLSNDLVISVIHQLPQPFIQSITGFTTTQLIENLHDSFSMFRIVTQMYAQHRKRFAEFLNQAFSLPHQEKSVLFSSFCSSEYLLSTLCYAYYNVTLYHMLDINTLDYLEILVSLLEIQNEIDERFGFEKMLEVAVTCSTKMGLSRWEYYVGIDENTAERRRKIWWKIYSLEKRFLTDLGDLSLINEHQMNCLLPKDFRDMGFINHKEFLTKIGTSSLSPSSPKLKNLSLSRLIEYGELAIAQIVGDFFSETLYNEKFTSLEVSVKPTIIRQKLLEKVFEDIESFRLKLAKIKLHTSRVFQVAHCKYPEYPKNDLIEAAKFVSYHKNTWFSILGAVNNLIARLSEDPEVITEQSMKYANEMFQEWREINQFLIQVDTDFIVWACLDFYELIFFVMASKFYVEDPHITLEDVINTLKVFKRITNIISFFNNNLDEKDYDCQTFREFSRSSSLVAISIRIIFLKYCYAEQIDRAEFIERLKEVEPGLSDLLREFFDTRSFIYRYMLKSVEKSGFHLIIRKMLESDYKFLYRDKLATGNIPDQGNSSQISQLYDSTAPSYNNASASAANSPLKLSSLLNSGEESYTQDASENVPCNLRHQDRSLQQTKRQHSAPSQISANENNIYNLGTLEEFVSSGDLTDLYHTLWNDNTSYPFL
Assay: PBM E-score (8-mer binding enrichment) (E-score (-0.5 to 0.5)); higher = stronger / more preferred TF binding; most listed sequences are background and not binding sites
Settings: protein concentration: 200 nM; construct: GST-full length
Outline: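 For each ungapped eight-base word taken together with its reverse complement, the Universal PBM Analysis Suite assigned an E-score. Binding data came from GST-tagged yeast transcription factors, applied at about 100-200 nM, on universal all-10-mer Agilent arrays made double-stranded by primer extension. Fluorescent anti-GST marked bound protein, and scans were normalised with masliner.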

Sequence | PBM E-score
GTGGGAAC | -0.0738
GGCGCCAC | 0.14
CAGCTTCC | 0.202
CATCGATA | 0.0725
AGGGATCG | -0.078
CACCTCAG | -0.241
CAAGGCCA | -0.127
CGTGAGGC | 0.0391
GGCGGGAA | 0.198
ACGACTAT | -0.128
CTCATCCC | 0.00209
ACCGCCCT | -0.041
CAGATTGC | -0.0891
TGGATACA | -0.189
AAAGTAAG | -0.176
CATCGGGC | 0.0304
ACGACTAA | -0.2
GCCAGCAA | -0.0512
CCCGTTGA | 0.0291
GGCGGACC | 0.357
CTAAACAC | -0.269
CAGTGAGA | -0.0851

Sequence | PBM E-score
TCCAAACA | -0.132
CGCTTTTC | 0.0476
GACAAGAC | 0.174
AACGTTGT | -0.0392
CGAAGACG | 0.037
CGATGTGA | -0.205
ATACCTGG | -0.113
ATCTTGAA | -0.061
AGGGTACA | -0.166
ACAGGGTC | 0.111
CGTCTTAA | -0.252
GTTTATGA | -0.0474
CTCTGGCA | -0.109
CTTTTACC | -0.169
AATCAGCC | -0.0911
TTCTTCAA | -0.00084
TAAGATAA | -0.0608
CTGTTGTC | 0.00651
AAAACGGC | 0.0837
CGGAACAA | 0.476
CGTGGGCC | 0.116
AGCAAAAT | 0.125

Sequence | PBM E-score
CTGGACGA | -0.212
AGCTTCTC | -0.0837
GGTGGCGA | -0.0736
CACATACC | -0.0506
GAACTTAC | -0.0657
GTCACGAA | 0.0345
CGGACAAA | 0.333
AGTCGGTC | 0.0743
AATGTTAC | -0.0378
CGGTCTTA | -0.108
ATGCAGAA | -0.0736
GCAGTAAA | 0.0241
AGCTTAAC | -0.0803
AGTTTTCC | 0.303
GCTGGCTA | -0.255
CCAGCGGG | 0.147
AAAACACG | -0.00814
ATATGTAG | -0.169
ATGTGCAG | -0.186
CCTAGGGC | -0.104
ATTATTAC | 0.00492
CATGAATG | 0.0813

Sequence | PBM E-score
ATATCATG | -0.185
CCTTCTAA | -0.316
CGAATACA | 0.141
CTATGCTC | -0.215
ATTAGGGA | -0.0882
AAACGCTG | -0.261
AAGGTGTC | 0.0566
ACGGTAGT | -0.00668
AATAGGGG | 0.0604
CGCAGGAG | -0.0399
GCCCACAC | 0.0749
TGCGGCAA | -0.0626
GTAACCAC | -0.301
CATACTTC | -0.117
CTTCCTTC | -0.174
AGAAAGAT | -0.106
TAAATATA | 0.107
ACTGGCCT | -0.0349
GCTTGGCA | -0.232
ACGACAAG | -0.133

From the supplement of paper PMC3334620
